Data on 43 compounds can be found in PMC4336329 (PLoS ONE, 2015).

In all, about 310,000 compounds went through this assay and about 2,200 (0.71%) showed an effect of 50% or more. Effects have a minus sign here. Some of the results follow.

In this assay the target is human ether-à-go-go-related gene (hERG) potassium channel (human, UniProt Q12809). As to the kind of experiment: primary screen, population patch clamp on CHO cells stably expressing hERG.
Sequence of human ether-à-go-go-related gene (hERG) potassium channel (Q12809 whole entry, looked up): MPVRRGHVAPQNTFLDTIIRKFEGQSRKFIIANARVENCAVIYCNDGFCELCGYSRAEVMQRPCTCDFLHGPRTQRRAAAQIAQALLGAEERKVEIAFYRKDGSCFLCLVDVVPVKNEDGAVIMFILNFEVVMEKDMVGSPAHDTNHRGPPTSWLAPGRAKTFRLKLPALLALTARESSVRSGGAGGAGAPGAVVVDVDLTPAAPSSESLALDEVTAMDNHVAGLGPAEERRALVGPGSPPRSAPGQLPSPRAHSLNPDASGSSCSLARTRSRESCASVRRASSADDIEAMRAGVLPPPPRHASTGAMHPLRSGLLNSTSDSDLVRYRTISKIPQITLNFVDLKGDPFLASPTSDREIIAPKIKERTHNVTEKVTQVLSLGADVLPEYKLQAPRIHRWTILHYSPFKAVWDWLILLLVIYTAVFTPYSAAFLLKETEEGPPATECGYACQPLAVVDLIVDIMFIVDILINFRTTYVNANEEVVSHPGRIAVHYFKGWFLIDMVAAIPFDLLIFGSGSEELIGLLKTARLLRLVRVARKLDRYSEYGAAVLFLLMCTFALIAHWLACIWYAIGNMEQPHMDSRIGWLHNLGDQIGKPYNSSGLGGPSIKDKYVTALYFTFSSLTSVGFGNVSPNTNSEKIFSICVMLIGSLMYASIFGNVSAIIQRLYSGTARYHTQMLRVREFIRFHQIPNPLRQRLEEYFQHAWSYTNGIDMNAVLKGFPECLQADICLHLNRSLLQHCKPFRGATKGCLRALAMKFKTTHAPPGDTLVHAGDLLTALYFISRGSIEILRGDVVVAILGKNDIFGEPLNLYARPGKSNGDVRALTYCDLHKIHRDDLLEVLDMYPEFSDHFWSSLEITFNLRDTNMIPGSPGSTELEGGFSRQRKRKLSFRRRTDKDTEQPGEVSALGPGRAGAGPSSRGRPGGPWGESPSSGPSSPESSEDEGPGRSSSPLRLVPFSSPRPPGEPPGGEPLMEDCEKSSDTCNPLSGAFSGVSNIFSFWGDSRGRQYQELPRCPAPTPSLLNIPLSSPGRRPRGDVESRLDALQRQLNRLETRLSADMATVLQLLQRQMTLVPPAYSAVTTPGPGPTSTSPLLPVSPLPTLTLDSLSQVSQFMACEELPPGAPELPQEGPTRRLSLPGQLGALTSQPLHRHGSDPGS
As to `NC(=O)NC(=O)CSc1nc(-c2ccccc2)c(-c2ccccc2)n1CC1CCCO1` (stereo not shown), the “hERG current change (%, negative = inhibition) at 1uM” value is reported as 2.8%.
For `CS(=O)(=O)N(CC(=O)Nc1ccccc1C(=O)NCCc1ccccc1)c1ccc2c(c1)OCCO2` the value was -2.01%.
For `CN(C)C(CNC(=O)C1CC(=O)N(Cc2ccccc2)C1)c1ccccc1` (stereo not shown) the value was 11.3%; for `Cc1ccc(N(C(=O)CCl)C(C(=O)NC2CCCCC2)c2cccnc2)cc1C` (stereo not shown), -6.24%; for `COc1ccc(NC(=O)C2CCCN(c3ncccn3)C2)cc1` (stereo not shown), 7.19%.
For `Cc1noc(C)c1NC(=O)NCCN1CCN(Cc2ccccc2)CC1` the value was 11%; for `O=C(NCc1cccnc1)C(=O)NCC(c1ccco1)N1CCOCC1` (stereo not shown), 10.8%.
Consider `Cc1cccc(C)c1N(CC(=O)Nc1cccc(N(C)S(C)(=O)=O)c1)S(C)(=O)=O`, for which the “hERG current change (%, negative = inhibition) at 1uM” value came out at 2.01%.
For `O=C(Nc1ccc(Br)cc1)c1cccc(NC(=O)C2C3CC4OC(=O)C2C4C3)c1` (stereo not shown), the “hERG current change (%, negative = inhibition) at 1uM” value was 17.5%.
For `Cc1ccc(NC(=O)NCCN2CCCCC2)cc1` the value was 7.39%.
In the case of `NC(=O)C(c1ccc(Sc2ccccc2)nn1)c1ccc(Cl)cc1Cl` (stereo not shown), the “hERG current change (%, negative = inhibition) at 1uM” value is reported as -0.811%.
For `O=C(c1ccc(OC(F)(F)F)cc1)c1ncc[nH]1` the value was 12.6%.
For `CCc1nc2c(cnn2-c2ccc(Cl)cc2)c(=O)n1-c1ccc(OC)cc1` the value was -0.134%.
For `O=[N+]([O-])c1ccc(-n2cnc3ccccc32)c([N+](=O)[O-])c1` the value was 5.21%; for `Cc1ccccc1NN=Nc1nc2c([nH]1)c(=O)n(C)c(=O)n2C`, 15.6%; for `CN1CCN(NC(=O)c2ccc(Br)c(S(=O)(=O)N3CCOCC3)c2)CC1.Cl`, 4.4%.
`COc1ccc(C)cc1NC(=O)NCCC1=CCCCC1`: the “hERG current change (%, negative = inhibition) at 1uM” value is reported as -5.48%.
As for `CC(=O)Nc1ccc(S(=O)(=O)Nc2nc3c(s2)CCCC3)cc1`, the “hERG current change (%, negative = inhibition) at 1uM” value worked out at 6.98%.
For `Cc1ccc(Cn2c(=O)oc3ccccc32)cc1` the value was 11.6%; for `O=C(CN1CSCC1=O)N1CCN(S(=O)(=O)c2ccc(Cl)cc2)CC1`, -1.13%.
In the case of `CN1C(=O)C(C)(C)c2cc(S(=O)(=O)N3CCN(c4ccccc4)CC3)ccc21`, the “hERG current change (%, negative = inhibition) at 1uM” value is given as -2.71%.
`Cc1[nH]n(-c2ccccc2)c(=O)c1C=NCCc1ccccc1`: the “hERG current change (%, negative = inhibition) at 1uM” value was found to be 11.8%.
For `Cc1ccc(-c2nc3ccccc3o2)cc1NC(=S)NC(=O)/C=C/c1ccco1` the value was 16.7%.
With `O=C(NCc1ccccc1)C(=O)NCC(c1ccco1)N1CCN(c2ccccc2F)CC1` (stereo not shown), the “hERG current change (%, negative = inhibition) at 1uM” value stood at 7.87%.
With `CCC(=O)Nc1nc2c(c(=O)[nH]1)CCCC2`, the “hERG current change (%, negative = inhibition) at 1uM” value came out at 11.9%.
In the case of `COC(=O)c1ccccc1NC(=O)Cn1nnc(-c2ccc(OC)cc2)n1`, the “hERG current change (%, negative = inhibition) at 1uM” value is given as 7.8%.
For `O=C(Nc1ccc(Cc2ccncc2)cc1)c1ccc(Cl)c([N+](=O)[O-])c1` the value was -9.04%.
For `CN1C/C(=C/c2cccs2)C(=O)/C(=C\c2cccs2)C1`, the “hERG current change (%, negative = inhibition) at 1uM” value was 8.83%.
Turning to `COC(=O)c1ccccc1NC(=O)c1sc(N)nc1C`, the “hERG current change (%, negative = inhibition) at 1uM” value was 14.2%.
For `CCOC(=O)c1cc(=O)n2c(nc3ccccc32)[nH]1` the value was 8.33%.
For `NC(=O)NC(Cc1ccccc1)C(=O)O` (stereo not shown) the value was 14.4%; for `COc1ccc(NC(=O)Nc2ccc([N+](=O)[O-])cc2)cn1`, 8.9%; for `COc1ccc(-c2nc3ccccc3c(=O)n2-c2c(C)n(C)n(-c3ccccc3)c2=O)cc1`, 10.9%.
With `CCS(=O)(=O)N1CCN(C(=O)COc2ccc(-c3ccccc3)cc2)CC1`, the “hERG current change (%, negative = inhibition) at 1uM” value is recorded as -3.84%.
For `O=C(Cn1cc(S(=O)(=O)Cc2ccccc2)c2ccccc21)Nc1ccccc1` the value was 10.1%; for `O=C(CN1C(=O)CCSc2ccc(S(=O)(=O)N3CCCC3)cc21)NCc1ccccc1Cl`, 5.83%; for `CC(=O)Nc1ccc(S(=O)(=O)Nc2nnc(C3CCCCC3)s2)cc1`, 18.2%.
For `O=c1[nH]c(/C=C/c2cccc3ccccc23)nc2ccccc12` the value was 16.1%.
For `N#C/C(=C(/O)COc1ccccc1)c1nnc2n1CCCCC2` the value was 10.7%; for `CN(Cc1cccs1)C(=O)CCc1c[nH]c2ccccc12`, 10.6%; for `Cc1ccc(NC(=O)Cn2c(=O)c3cccn3c3ccccc32)c(C)c1`, 2.66%.
With `Cc1cc2oc(=O)cc(CN3CCN(S(=O)(=O)/C=C/c4ccccc4)CC3)c2cc1C`, the “hERG current change (%, negative = inhibition) at 1uM” value is 14.5%.
For `Cn1nnnc1SC(C(=O)Nc1ccc(F)cc1)c1ccccc1` (stereo not shown) the value was 11.9%.
